Measured values: paper PMC4336329 (PLoS ONE, 2015)
Among all 310,000 compounds or so, about 14,000 (4.5%) showed an effect of 50% or more. Effects have a minus sign here. The list shows a part of the results.

Target: human ether-à-go-go-related gene (hERG) potassium channel (human, UniProt Q12809)
Assay: primary screen, population patch clamp on CHO cells stably expressing hERG
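Further: peak tail current of the secondary pulse compared with the same well before compound.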

Chain of human ether-à-go-go-related gene (hERG) potassium channel (Q12809 whole entry, looked up): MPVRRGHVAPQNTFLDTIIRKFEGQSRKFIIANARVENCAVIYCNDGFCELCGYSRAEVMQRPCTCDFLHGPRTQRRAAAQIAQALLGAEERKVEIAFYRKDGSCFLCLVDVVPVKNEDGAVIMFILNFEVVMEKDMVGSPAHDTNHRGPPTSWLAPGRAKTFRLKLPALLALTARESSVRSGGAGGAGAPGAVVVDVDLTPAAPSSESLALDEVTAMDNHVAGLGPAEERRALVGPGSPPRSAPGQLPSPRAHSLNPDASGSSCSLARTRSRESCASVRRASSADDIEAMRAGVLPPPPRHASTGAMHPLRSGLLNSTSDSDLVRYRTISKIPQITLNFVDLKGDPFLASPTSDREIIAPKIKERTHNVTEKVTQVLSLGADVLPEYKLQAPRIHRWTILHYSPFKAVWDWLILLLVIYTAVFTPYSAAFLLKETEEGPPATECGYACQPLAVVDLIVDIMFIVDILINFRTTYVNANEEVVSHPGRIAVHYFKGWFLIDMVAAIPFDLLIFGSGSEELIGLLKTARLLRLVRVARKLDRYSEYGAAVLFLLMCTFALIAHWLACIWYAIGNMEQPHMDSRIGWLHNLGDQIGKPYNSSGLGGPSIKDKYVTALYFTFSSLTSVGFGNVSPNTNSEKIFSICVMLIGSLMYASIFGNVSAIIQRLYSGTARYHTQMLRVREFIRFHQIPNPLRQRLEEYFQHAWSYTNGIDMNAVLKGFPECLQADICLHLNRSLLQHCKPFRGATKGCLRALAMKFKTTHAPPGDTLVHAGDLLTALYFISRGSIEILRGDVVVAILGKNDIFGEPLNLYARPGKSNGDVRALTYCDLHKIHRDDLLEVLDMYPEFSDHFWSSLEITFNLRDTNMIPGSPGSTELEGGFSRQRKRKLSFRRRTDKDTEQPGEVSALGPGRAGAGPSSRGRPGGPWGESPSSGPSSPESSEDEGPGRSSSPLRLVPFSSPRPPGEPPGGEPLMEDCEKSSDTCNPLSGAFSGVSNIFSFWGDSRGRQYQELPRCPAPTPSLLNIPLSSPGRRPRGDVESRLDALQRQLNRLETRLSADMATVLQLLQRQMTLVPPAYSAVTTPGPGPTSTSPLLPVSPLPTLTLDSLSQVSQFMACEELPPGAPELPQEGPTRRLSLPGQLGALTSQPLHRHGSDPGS

Row | Structure (SMILES) | hERG current change (%, negative = inhibition) at 10uM [%]
1 | COC(=O)c1ccccc1N=Cc1c(O)[nH]c(=S)[nH]c1=O | 14.3
2 | O=C(C1=NN[C@@H]2C(=O)N(c3ccccc3C(F)(F)F)C(=O)[C@H]12)c1cnccn1 | 7.64
3 | O=c1[nH]c2ccc(S(=O)(=O)N3CCN(C4CCCCC4)CC3)cc2[nH]c1=O | 0.776
4 | Cn1c(C(=O)OC(C(=O)NC2CCCCC2)c2ccccn2)cc2sccc21 (stereo not shown) | -4.65
5 | Cc1cccc(C)c1N1CCN(S(=O)(=O)N(C)C)CC1 | 23.5
6 | Cc1ccc(S(=O)(=O)N(NC2=NS(=O)(=O)c3ccccc32)C(=O)c2ccccc2)cc1 | -15.7
7 | Cc1cccc(C(=O)N/N=C/C(C)Cc2ccc3c(c2)OCO3)c1 (stereo not shown) | -4.43
8 | CCC(C)(C)n1nnnc1CN1CCC(c2nc3ccc(C)cc3[nH]2)CC1 | -48.3
9 | CCOC(=O)N1CCN(C(=O)CCc2ccc(S(=O)(=O)NCCc3ccccc3)cc2)CC1 | -34.6
10 | COc1cccc(CN(C)C(=O)c2cccnc2SC)c1OC | 9.74
11 | CCOc1ccccc1N1CC(C(=O)Nc2ccccc2CC)CC1=O (stereo not shown) | 7.86
12 | CC1CCC(NC(=O)Cn2c3c(c(-c4ccccc4Cl)cc2=O)CCC3)CC1 (stereo not shown) | -20.8
13 | COc1ccc2cc3cc(C(=O)NCC4CCCO4)oc3nc2c1 (stereo not shown) | -9.38
14 | O=C(Nc1c2c(nn1-c1cccc(Cl)c1)CS(=O)C2)c1ccc2c(c1)OCO2 (stereo not shown) | -12.7
15 | COc1ccc(NC(=S)NNC(=O)Cn2nc([N+](=O)[O-])cc2C)cc1 | 13.7
16 | CC(=O)Nc1ccc(S(=O)(=O)N2CCn3cccc3C2C)cc1 (stereo not shown) | -16.3
17 | O=C(CN1CCNCC1)Nc1ccccc1Cl | -2.06
18 | O=C(c1cc([N+](=O)[O-])cc([N+](=O)[O-])c1)N(c1ccccn1)c1ccccn1 | -11.9
19 | CC(=O)N1CCN(CC(=O)Nc2ccc(Cl)c(S(=O)(=O)N(C)C)c2)CC1 | 8.45
20 | COC(=O)c1ccc(Cn2nc(C)c([N+](=O)[O-])c2C)o1 | 12.9
21 | O=C(Nc1cc2c(cc1C(=O)O)OCCCO2)c1ccc(F)cc1F | 12.2
22 | COc1ccc(/C=C2\SC(=S)N(CCC(=O)N3CCOCC3)C2=O)cc1 | 19.7

Row | Structure (SMILES) | hERG current change (%, negative = inhibition) at 10uM [%]
23 | COc1ccc(N2CCN(C(=O)Cc3ccc(S(=O)(=O)N4CCOCC4)s3)CC2)cc1 | -19.7
24 | N#C/C(=C/c1ccc(-c2ccccc2[N+](=O)[O-])o1)C(=O)NCCN1CCCCC1 | -69.1
25 | CC(C)(C)NC(=O)C(c1ccccn1)N(C(=O)c1csnn1)C1CCCC1 (stereo not shown) | -10.3
26 | Cc1cc(Cl)c(S(=O)(=O)N/N=C/c2ccc3c(c2)OCO3)c(Cl)c1 | 2.77
27 | COc1ccc(C(=O)Nc2cc3c4c(c2)C(C)C(=O)N4CCC3)cc1 (stereo not shown) | -15.5
28 | COCCCNC(=O)c1ccc(CS(=O)(=O)Cc2cccc(C)c2)o1 | -5.75
29 | O=C(CSc1ncn[nH]1)Nc1ncc(C(F)(F)F)cc1Cl | 19.2
30 | Cc1cc(C)cc(OCC(=O)OCC(=O)NC2CCCC2)c1 | 2.19
31 | Cc1sc2ncnc(NCC(C)(C)N3CCOCC3)c2c1C | -71.7
32 | Cc1ccn(CC(=O)N2CCCC(C(=O)c3cccc4ccccc34)C2)n1 (stereo not shown) | 13.1
33 | CC(=O)Nc1ccc(C(=O)NNC(=O)c2cccs2)cc1 | 17
34 | O=C(Nc1ccccc1O)c1cccc(NC(=O)c2ccco2)c1 | 2.51
35 | COc1ccc(C(CNC(=O)C(CC(C)C)NS(=O)(=O)c2ccc(C)cc2)N2CCOCC2)cc1 (stereo not shown) | -3.25
36 | CSCCC(C(=O)Nc1ccc2c(c1)OCO2)N1C(=O)c2ccccc2C1=O (stereo not shown) | -6.23
37 | COc1ccc(-c2nn(-c3ccccc3)cc2/C=N/NC(=O)c2cccc(S(=O)(=O)Nc3ccccc3Cl)c2)cc1 | -11.1
38 | CSc1nnc(C(C)(C)C)c(=O)n1/N=C/c1ccc(Cl)cc1 | 0.0206
39 | CC(=O)N1CCC(C(=O)NC2CCCc3c2cnn3-c2cc(F)cc(F)c2)CC1 (stereo not shown) | -4.52
40 | O=C(c1ccco1)N1CCN(Cc2c(Cl)cccc2Cl)CC1 | -8.42
41 | Cc1ccccc1N1CCN(C2CCCN(C(=O)c3cnsn3)C2)CC1 (stereo not shown) | -58.2
42 | CCCCNC(=S)N/N=C/c1ccc(C)s1 | -1.99
43 | COc1cccc(-c2ccc(NC(=O)C3CCCN(Cc4cnc(C)s4)C3)cc2)c1 (stereo not shown) | 2.11
44 | Cc1c(C(=O)O)oc2ccc3c(c12)C(O)CC(C)(C)O3 (stereo not shown) | 13.7

Row | Structure (SMILES) | hERG current change (%, negative = inhibition) at 10uM [%]
45 | O=C(Cc1ccc(F)cc1)Nc1cccc2cccnc12 | -9.5
46 | S=C(NC1CC1)N1CCc2ccccc2C1 | 0.433
47 | CC12CCC(C(=O)N(CCCCN3CCN(c4ccccn4)CC3)C1=O)C2(C)C (stereo not shown) | -46.3
48 | Cl.O=C(/C=C/c1cn(-c2ccccc2)nc1-c1ccc2c(c1)OCCO2)NCCCN1CCOCC1 | -5.65
49 | Cc1cc(OCC(=O)N2CCC(C(=O)NCC(C)C)CC2)c2c3c(c(=O)oc2c1)CCCC3 | 9.92
50 | COCCN1CCn2c(nc3cc(NC(=O)Cn4nc(C)c5ccccc5c4=O)ccc32)C1 | 17.8
51 | COc1ccc(CCN2C(=O)CC(C(N)=O)SC2=Nc2ccccc2)cc1OC (stereo not shown) | -16.9
52 | COc1ccc(-n2c(SCc3ccc([N+](=O)[O-])cc3)nnc2-c2ccccc2)cc1 | -24.4
53 | CC1CCC(NC(=O)CNC(=S)N2CC3CC(C2)c2cccc(=O)n2C3)CC1 (stereo not shown) | 8.46
54 | Cc1cc(NC(=O)CCCN2C(=O)/C(=C\c3cccs3)SC2=S)no1 | 11.5
55 | Cn1c2ccccc2c2cc(/C=N/NC(=O)c3cc(O)cc(O)c3)ccc21 | 26
56 | CCOC(=O)c1sc(NC(=O)/C=C/c2ccc(F)cc2)nc1C | -27.3
57 | Cc1noc(-c2ccccc2OC(=O)c2ccccc2)n1 | 3.36
58 | CCOc1ccc(NC(=O)C(C)NS(=O)(=O)c2ccc(NC(C)=O)cc2)cc1 (stereo not shown) | 16.8
59 | O=C(NCC(=O)N(c1cccc(F)c1)C(C(=O)NC1CCCC1)c1cccnc1)c1cccs1 (stereo not shown) | -2.35
60 | CCOC(=O)c1cc2c(=O)n3ccccc3nc2n(CCCOC)c1=NC(=O)c1cccnc1 | -68
61 | C1CCc2c(nc3nnnn3c2N2CCOCC2)C1 | -3.03
62 | C[C@H](CCC(=O)[O-])[C@H]1CC[C@H]2[C@@H]3[C@H](O)C[C@@H]4C[C@H](O)CC[C@]4(C)[C@H]3C[C@H](O)[C@]12C.[Na+] | 6.42
63 | O=C(COc1ccc(F)cc1)Nc1nnc(C2CC2)s1 | -5.03
64 | CCc1cc(=O)oc2cc(OCC(=O)N3CC[C@@]4(O)CCCC[C@H]4C3)ccc12 | 4.79
65 | O=C(O)C1CCC(N2C(=O)C3C4CCC(C4)C3C2=O)CC1 (stereo not shown) | 14.6
66 | CCc1cccc(NC(=O)CCC(=O)N2CCSc3ccccc32)c1 | -34.8

Row | Structure (SMILES) | hERG current change (%, negative = inhibition) at 10uM [%]
67 | O=C(NCCCn1ccnc1)C(=O)NCC1OCCN1S(=O)(=O)c1ccc(F)cc1 (stereo not shown) | 13.6
68 | CC(C)CN(C(=O)c1cccc(F)c1)c1c(N)n(CC(C)C)c(=O)[nH]c1=O | 26.8
69 | CC(=O)Nc1ccc(N=Cc2c(O)c(C(=O)Nc3ccccc3)cc3ccccc23)cc1 | 18.4
70 | Cc1cc(Oc2cnn(C(C)(C)C)c(=O)c2Cl)cc(C(C)C)c1 | 15.4
71 | COc1ccc(CCN2CC(C(=O)NCCc3cn[nH]c3)CCC2=O)cc1 (stereo not shown) | -10.8
72 | Cc1cccc(OCC(=O)N/N=C/C=C/c2ccco2)c1 | 7.41
73 | Cc1ccc(N2CCOCC2)c2c1C(=O)c1ccccc1C2=O | -19.1
74 | CC(C)(C)N(Cc1nc(-c2ccccc2)no1)C(=O)c1ccc2c(c1)OCO2 | 7.02
75 | COc1cccc(C(=O)/C=C/Nc2cccc(O)c2)c1 | -4.68
76 | O=C(CCNS(=O)(=O)c1cccc2nsnc12)NC1CCN(Cc2ccccc2)CC1 | -28.4
77 | C=CCn1c(C)cc(C(=O)CSc2nc3ccccc3[nH]2)c1C | -19.1
78 | COc1ccc(NS(=O)(=O)c2csc(C(=O)N3CCCC3)c2)c(OC)c1 | -14.5
79 | CC(=O)c1c(C)[nH]c(C(=O)Nc2ccccn2)c1C | 3.43
80 | Cc1ccc2sc(NC(=O)CSc3nc(C)cc(C)c3C#N)nc2c1 | -2.59
81 | C=CCn1c(=O)c2c3c(sc2n2c(Nc4ccc(OC)cc4)nnc12)CCCC3 | 7.17
82 | Fc1ccc(C2c3[nH]c4ccccc4c3CCN2Cc2cccn2-c2ncccn2)cc1 (stereo not shown) | -52.2
83 | CCCCn1nnnc1SCC(=O)Nc1ccc(F)cc1 | 0.129
84 | O=C(/C=C/Nc1ccccc1)c1cnc(-c2ccccc2)s1 | 12.9
85 | Cc1cccc(C2Nc3ccccc3C(=O)N2NC(=O)c2ccc([N+](=O)[O-])cc2)n1 (stereo not shown) | -5.91
